Experimental data as given in the supplement of paper PMC8728848.
This is one part of the list.

Tests used:
Experiment in all cases: glycan array binding signal (z-score within array); higher = stronger binding
Conditions in all cases: glycan notation: IUPAC condensed, linker removed; mutation: H84T
[1] = molecular target: Gal(b1-3)GlcNAc(b1-6)GalNAc
Method in brief: (§1)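 The binding signal is a Z-score computed within each array and averaged over linkers. Arrays of the same protein sequence at different concentrations or buffers were also averaged together. Data originate from 3228 arrays in the Consortium for Functional Glycomics database, kept only where the protein sequence was available.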

[2] = molecular target: Gal(b1-3)GlcNAc(b1-6)[Gal(b1-3)]GalNAc
Method in brief: as §1

Gal(b1-3)GlcNAc6S = molecular target: Gal(b1-3)GlcNAc6S
Method in brief: as §1

[3] = molecular target: Gal(b1-3)[Fuc(a1-4)]GlcNAc
Method in brief: as §1

[4] = molecular target: Gal(b1-3)[Fuc(a1-4)]GlcNAc(b1-2)Man
Method in brief: as §1

[5] = molecular target: Gal(b1-3)[Fuc(a1-4)]GlcNAc(b1-2)Man(a1-3)[Gal(b1-3)[Fuc(a1-4)]GlcNAc(b1-2)Man(a1-6)]Man(b1-4)GlcNAc(b1-4)[Fuc(a1-6)]GlcNAc
Method in brief: as §1

[6] = molecular target: Gal(b1-3)[Fuc(a1-4)]GlcNAc(b1-3)Gal(b1-3)[Fuc(a1-4)]GlcNAc
Method in brief: as §1

[7] = molecular target: Gal(b1-3)[Fuc(a1-4)]GlcNAc(b1-3)Gal(b1-4)[Fuc(a1-3)]GlcNAc
Method in brief: as §1

[8] = molecular target: Gal(b1-3)[Fuc(a1-4)]GlcNAc(b1-6)GalNAc
Method in brief: as §1

[9] = molecular target: Gal(b1-3)[GlcNAc(b1-6)]GalNAc
Method in brief: as §1

[10] = molecular target: Gal(b1-3)[Neu5Ac(a2-6)]GalNAc
Method in brief: as §1

[11] = molecular target: Gal(b1-3)[Neu5Ac(a2-6)]GlcNAc(b1-4)Gal(b1-4)Glc
Method in brief: as §1

[12] = molecular target: Gal(b1-3)[Neu5Ac(b2-6)]GalNAc
Method in brief: as §1

Gal(b1-4)Gal = molecular target: Gal(b1-4)Gal
Method in brief: as §1

[13] = molecular target: Gal(b1-4)GalNAc(a1-3)[Fuc(a1-2)]Gal(b1-4)GlcNAc
Method in brief: as §1

[14] = molecular target: Gal(b1-4)GalNAc(b1-3)[Fuc(a1-2)]Gal(b1-4)GlcNAc
Method in brief: as §1

Gal(b1-4)Glc = molecular target: Gal(b1-4)Glc
Method in brief: as §1

Gal(b1-4)Glc6S = molecular target: Gal(b1-4)Glc6S
Method in brief: as §1

Gal(b1-4)GlcNAc = molecular target: Gal(b1-4)GlcNAc
Method in brief: as §1

[15] = molecular target: Gal(b1-4)GlcNAc(a1-6)Gal(b1-4)GlcNAc
Method in brief: as §1

Gal(b1-4)GlcNAc(b1-2)Man = molecular target: Gal(b1-4)GlcNAc(b1-2)Man
Method in brief: as §1

[16] = molecular target: Gal(b1-4)GlcNAc(b1-2)Man(a1-3)Man(b1-4)GlcNAc(b1-4)GlcNAc
Method in brief: as §1

[17] = molecular target: Gal(b1-4)GlcNAc(b1-2)Man(a1-3)[Gal(b1-4)GlcNAc(b1-2)Man(a1-6)]Man(b1-4)GlcNAc(b1-4)GlcNAc
Method in brief: as §1

[18] = molecular target: Gal(b1-4)GlcNAc(b1-2)Man(a1-3)[Gal(b1-4)GlcNAc(b1-2)Man(a1-6)]Man(b1-4)GlcNAc(b1-4)[Fuc(a1-6)]GlcNAc
Method in brief: as §1

[19] = molecular target: Gal(b1-4)GlcNAc(b1-2)Man(a1-3)[Gal(b1-4)GlcNAc(b1-2)Man(a1-6)][Gal(b1-4)GlcNAc(b1-4)]Man(b1-4)GlcNAc(b1-4)[Fuc(a1-6)]GlcNAc
Method in brief: as §1

[20] = molecular target: Gal(b1-4)GlcNAc(b1-2)Man(a1-3)[Gal(b1-4)GlcNAc(b1-2)Man(a1-6)][GlcNAc(b1-4)]Man(b1-4)GlcNAc(b1-4)[Fuc(a1-6)]GlcNAc
Method in brief: as §1

[21] = molecular target: Gal(b1-4)GlcNAc(b1-2)Man(a1-3)[GlcNAc(b1-2)Man(a1-6)]Man(b1-4)GlcNAc(b1-4)GlcNAc
Method in brief: as §1

[22] = molecular target: Gal(b1-4)GlcNAc(b1-2)Man(a1-3)[GlcNAc(b1-4)][Gal(b1-4)GlcNAc(b1-2)Man(a1-6)]Man(b1-4)GlcNAc(b1-4)GlcNAc
Method in brief: as §1

[23] = molecular target: Gal(b1-4)GlcNAc(b1-2)Man(a1-3)[Man(a1-6)]Man(b1-4)GlcNAc(b1-4)GlcNAc
Method in brief: as §1

[24] = molecular target: Gal(b1-4)GlcNAc(b1-2)Man(a1-6)Man(b1-4)GlcNAc(b1-4)GlcNAc
Method in brief: as §1

[25] = molecular target: Gal(b1-4)GlcNAc(b1-2)Man(a1-6)[GlcNAc(b1-2)Man(a1-3)]Man(b1-4)GlcNAc(b1-4)GlcNAc
Method in brief: as §1

[26] = molecular target: Gal(b1-4)GlcNAc(b1-2)Man(a1-6)[Man(a1-3)]Man(b1-4)GlcNAc(b1-4)GlcNAc
Method in brief: as §1

[27] = molecular target: Gal(b1-4)GlcNAc(b1-2)[Gal(b1-4)GlcNAc(b1-4)]Man(a1-3)[Gal(b1-4)GlcNAc(b1-2)Man(a1-6)]Man(b1-4)GlcNAc(b1-4)GlcNAc
Method in brief: as §1

[28] = molecular target: Gal(b1-4)GlcNAc(b1-2)[Gal(b1-4)GlcNAc(b1-4)]Man(a1-3)[Gal(b1-4)GlcNAc(b1-2)[Gal(b1-4)GlcNAc(b1-6)]Man(a1-6)]Man(b1-4)GlcNAc(b1-4)GlcNAc
Method in brief: as §1

[29] = molecular target: Gal(b1-4)GlcNAc(b1-2)[Gal(b1-4)GlcNAc(b1-4)]Man(a1-3)[GlcNAc(b1-4)][Gal(b1-4)GlcNAc(b1-2)Man(a1-6)]Man(b1-4)GlcNAc(b1-4)GlcNAc
Method in brief: as §1

[30] = molecular target: Gal(b1-4)GlcNAc(b1-2)[Gal(b1-4)GlcNAc(b1-4)]Man(a1-3)[GlcNAc(b1-4)][Gal(b1-4)GlcNAc(b1-2)[Gal(b1-4)GlcNAc(b1-6)]Man(a1-6)]Man(b1-4)GlcNAc(b1-4)GlcNAc
Method in brief: as §1

[31] = molecular target: Gal(b1-4)GlcNAc(b1-2)[Gal(b1-4)GlcNAc(b1-6)]Man(a1-6)[Gal(b1-4)GlcNAc(b1-2)Man(a1-3)]Man(b1-4)GlcNAc(b1-4)GlcNAc
Method in brief: as §1

[32] = molecular target: Gal(b1-4)GlcNAc(b1-2)[Gal(b1-4)GlcNAc(b1-6)]Man(a1-6)[Gal(b1-4)GlcNAc(b1-2)Man(a1-3)]Man(b1-4)GlcNAc(b1-4)[Fuc(a1-6)]GlcNAc
Method in brief: as §1

[33] = molecular target: Gal(b1-4)GlcNAc(b1-2)[Gal(b1-4)GlcNAc(b1-6)]Man(a1-6)[GlcNAc(b1-4)][Gal(b1-4)GlcNAc(b1-2)Man(a1-3)]Man(b1-4)GlcNAc(b1-4)GlcNAc
Method in brief: as §1

[34] = molecular target: Gal(b1-4)GlcNAc(b1-2)[Gal(b1-4)GlcNAc(b1-6)]Man(a1-6)[GlcNAc(b1-4)][Gal(b1-4)GlcNAc(b1-2)[Gal(b1-4)GlcNAc(b1-4)]Man(a1-3)]Man(b1-4)GlcNAc(b1-4)[Fuc(a1-6)]GlcNAc
Method in brief: as §1

[35] = molecular target: Gal(b1-4)GlcNAc(b1-3)Gal(b1-3)GalNAc
Method in brief: as §1

[36] = molecular target: Gal(b1-4)GlcNAc(b1-3)Gal(b1-3)GlcNAc
Method in brief: as §1

[37] = molecular target: Gal(b1-4)GlcNAc(b1-3)Gal(b1-4)Glc
Method in brief: as §1

[38] = molecular target: Gal(b1-4)GlcNAc(b1-3)Gal(b1-4)GlcNAc
Method in brief: as §1

[39] = molecular target: Gal(b1-4)GlcNAc(b1-3)Gal(b1-4)GlcNAc(b1-2)Man(a1-3)[Gal(b1-4)GlcNAc(b1-3)Gal(b1-4)GlcNAc(b1-2)Man(a1-6)]Man(b1-4)GlcNAc(b1-4)GlcNAc
Method in brief: as §1

B1: Banana lectin (Musa acuminata) (protein)
chain: MNGAIKVGAWGGNGGSAFDMGPAYRIISVKIFSGDVVDGVDVTFTYYGKTETRHYGGSGGTPHEIVLQEGEYLVGMAGEVANYTGAVVLGKLGFSTNKKAYGPFGNTGGTPFSLPIAAGKISGFFGRGGKFLDAIGVYLEPLEHHHHHH
- glycan array binding signal (z-score) [1]: -0.155
- glycan array binding signal (z-score) [2]: -0.117
- glycan array binding signal (z-score) (Gal(b1-3)GlcNAc6S): -0.154
- glycan array binding signal (z-score) [3]: -0.181
- glycan array binding signal (z-score) [4]: -0.197
- glycan array binding signal (z-score) [5]: -0.193
- glycan array binding signal (z-score) [6]: -0.197
- glycan array binding signal (z-score) [7]: -0.174
- glycan array binding signal (z-score) [8]: -0.18
- glycan array binding signal (z-score) [9]: -0.172
- glycan array binding signal (z-score) [10]: -0.154
- glycan array binding signal (z-score) [11]: -0.19
- glycan array binding signal (z-score) [12]: -0.186
- glycan array binding signal (z-score) (Gal(b1-4)Gal): -0.186
- glycan array binding signal (z-score) [13]: -0.173
- glycan array binding signal (z-score) [14]: -0.137
- glycan array binding signal (z-score) (Gal(b1-4)Glc): -0.156
- glycan array binding signal (z-score) (Gal(b1-4)Glc6S): -0.165
- glycan array binding signal (z-score) (Gal(b1-4)GlcNAc): -0.179
- glycan array binding signal (z-score) [15]: -0.202
- glycan array binding signal (z-score) (Gal(b1-4)GlcNAc(b1-2)Man): -0.134
- glycan array binding signal (z-score) [16]: -0.168
- glycan array binding signal (z-score) [17]: -0.176
- glycan array binding signal (z-score) [18]: -0.167
- glycan array binding signal (z-score) [19]: -0.206
- glycan array binding signal (z-score) [20]: -0.193
- glycan array binding signal (z-score) [21]: -0.189
- glycan array binding signal (z-score) [22]: -0.187
- glycan array binding signal (z-score) [23]: -0.155
- glycan array binding signal (z-score) [24]: -0.181
- glycan array binding signal (z-score) [25]: -0.123
- glycan array binding signal (z-score) [26]: 1.66
- glycan array binding signal (z-score) [27]: -0.139
- glycan array binding signal (z-score) [28]: -0.116
- glycan array binding signal (z-score) [29]: -0.143
- glycan array binding signal (z-score) [30]: -0.175
- glycan array binding signal (z-score) [31]: -0.198
- glycan array binding signal (z-score) [32]: -0.063
- glycan array binding signal (z-score) [33]: -0.098
- glycan array binding signal (z-score) [34]: -0.145
- glycan array binding signal (z-score) [35]: -0.181
- glycan array binding signal (z-score) [36]: -0.173
- glycan array binding signal (z-score) [37]: -0.169
- glycan array binding signal (z-score) [38]: -0.169
- glycan array binding signal (z-score) [39]: -0.136
